# Test results: article PMC6919601, “Identification of Plasmodium dipeptidyl aminopeptidase allosteric inhibitors by high throughput screening” (PLoS ONE, 2019)
# Out of some 110,000 compounds screened, about 230 (0.21%) showed an effect of 50% or more. Some of the results follow.
# Target: DPAP1 (Plasmodium falciparum, UniProt Q8IIJ9)
# Assay: primary screen, percent inhibition; read by cleavage of a fluorogenic dipeptide substrate; higher = more effect of the substance
# Set-up: species or system P. falciparum D10 trophozoite lysates; single well
# 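Note: 30 min substrate incubation versus DMSO and 10 µM JCP410 controls.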
# Sequence of DPAP1 (Q8IIJ9 whole entry, looked up): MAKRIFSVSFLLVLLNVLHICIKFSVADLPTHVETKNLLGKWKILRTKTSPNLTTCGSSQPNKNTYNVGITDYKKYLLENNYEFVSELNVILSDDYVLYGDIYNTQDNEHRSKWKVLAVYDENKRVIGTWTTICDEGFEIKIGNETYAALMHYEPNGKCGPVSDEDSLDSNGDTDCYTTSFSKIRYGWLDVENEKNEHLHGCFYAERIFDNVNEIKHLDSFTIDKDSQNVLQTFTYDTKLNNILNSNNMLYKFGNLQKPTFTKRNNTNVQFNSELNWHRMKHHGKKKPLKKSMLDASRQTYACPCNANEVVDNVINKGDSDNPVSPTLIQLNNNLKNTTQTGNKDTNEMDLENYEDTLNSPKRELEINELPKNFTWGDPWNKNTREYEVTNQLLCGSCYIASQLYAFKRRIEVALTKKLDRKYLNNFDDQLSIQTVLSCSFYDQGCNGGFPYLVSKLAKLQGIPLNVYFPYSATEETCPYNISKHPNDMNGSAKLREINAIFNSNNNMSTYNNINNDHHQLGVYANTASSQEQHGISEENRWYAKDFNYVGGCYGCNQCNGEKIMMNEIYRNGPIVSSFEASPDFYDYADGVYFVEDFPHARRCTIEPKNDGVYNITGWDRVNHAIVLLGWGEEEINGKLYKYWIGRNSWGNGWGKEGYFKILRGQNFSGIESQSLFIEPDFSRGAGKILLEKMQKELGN
row,Structure (SMILES),% Inhibition @ 10 uM [%]
1,O=C1NC(c2cccnc2)C(C(=O)c2cccs2)=C1O (centres unmarked),-2.28
2,Cc1nn(CC(=O)N2CCCCCC2)c(=O)c2c1sc1ccccc12,0.697
3,COCc1cc(C)nc2sc(C(C)=O)c(NC(=O)c3ccccc3)c12,1.76
4,CCc1nnc(NC(=O)c2cc3c(s2)-c2ccc(Cl)cc2S(=O)(=O)C3)s1,4.14
5,CCN(CC)CC(=O)Nc1ccc2c(c1)Nc1ccccc1CC2,-5.62
6,CCn1c(SCC(=O)Nc2c(C)cc(C)cc2C)nc2c1c(=O)n(C)c(=O)n2C,4.67
7,CCc1ccc(OCC(=O)NC2CC(C)(C)NC(C)(C)C2)c(Br)c1,5.25
8,COc1ccc(CC(=O)Nc2ccc(S(=O)(=O)Nc3ccc(C)cc3C)cc2)cc1,-3.41
9,CCOc1ccc2nc(NC(=O)Cn3nc(Cc4cccnc4)c4ccccc4c3=O)sc2c1,-1.21
10,N#Cc1c(SCC(=O)Nc2nccs2)nc2c(c1-c1ccco1)CCCC2,-3.06
11,Cc1cc(OCC(=O)Nc2ccc(CC#N)cc2)ccc1Cl,-5.23
12,Cc1ccc(N(CC(=O)N2CCCCCC2)S(=O)(=O)c2ccccc2)cc1,5.51
13,Cc1ccc(S(=O)(=O)N2CCN(c3ccc(F)cc3)CC2)cc1,-0.856
14,Cc1ncc(CO)c2c1Oc1nc(-c3cccc(F)c3)nc(SCc3ccncc3)c1C2,-3.74
15,Cc1nc2nc(NCc3ccc(C(C)C)cc3)nn2c(C)c1Cl,4.18
16,Cc1cccc(OCCSc2nc3c(N)nc(N)nc3[nH]2)c1,-3.09
17,NC(=O)c1ccc(NS(=O)(=O)c2cc(Cl)ccc2Cl)cc1,-1.11
18,CC1=CN2C(=N)/C(=C/c3ccc(SCc4ccc(Cl)cc4)o3)C(=O)N=C2S1,7.66
19,COc1ccc(C(=O)c2c[nH]c3ccccc23)cc1,-1.86
20,CCOC(=O)c1cc(C)n(CC2CCC(C(=O)Nc3cc(C)ccn3)CC2)c1C (centres unmarked),-0.767
21,OCCN1CCN(CCCc2ccccc2)CC1,-0.0494
22,Oc1ccccc1-c1cc(-c2ccc(F)cc2)[nH]n1,-2.04
23,COc1ccc(C2C(C(=O)N3CCN(c4ccccn4)CC3)c3ccccc3C(=O)N2C)cc1 (centres unmarked),2.06
24,Cc1ccccc1NC(=O)CN1CCCCC1,-2.73
25,O=C(NCCCc1ccccc1)C1CCN(c2nnc(N3CCCC3=O)s2)CC1,5.42
26,COC(=O)c1ccc(/C=c2/sc3nc(=O)c(Cc4ccc(F)cc4)nn3c2=O)cc1,4.51

row,Structure (SMILES),% Inhibition @ 10 uM [%]
1,CC(C)(C)C(=O)NCCCc1nc2ccccc2n1CC(=O)c1ccccc1,-0.58
2,C=CCOc1ccc(CNc2nccs2)cc1OC,-1.61
3,CCN1CCN(Cc2ccc(C(F)(F)F)cc2)CC1,1.55
4,CS(=O)(=O)N(CC(=O)N1CCN(Cc2ccccc2)CC1)c1cccc(C(F)(F)F)c1,-3.75
5,COc1ccc(NS(=O)(=O)c2cccc(C(=O)Nc3ccccc3C)c2)cc1,-1.74
6,CC(C)c1ccc(N(CC(=O)Nc2cccnc2)S(=O)(=O)c2ccccc2)cc1,-8.18
7,CC(C)CC(NC(=O)C1CCCCC1)C(=O)NC(CCN(C)C)Cc1ccccc1 (centres unmarked),0.505
8,O=C1N/C(=C\c2ccc(F)cc2)C(=O)c2ccccc21,-0.292
9,O=C(CCCOc1ccc(Cl)cc1Cl)Nc1nccs1,4.57
10,CC1CCN(c2nnc(-c3cccs3)c3ccccc23)CC1,3.47
11,O=C(c1sc2cccc(Cl)c2c1Cl)N(Cc1cccs1)C1CCS(=O)(=O)C1 (centres unmarked),-5.01
12,Fc1cnc(N2CCOCC2)nc1N1CCOCC1,1.51
13,COc1ccccc1C(=O)Nc1ccc(NC(=O)C(F)(F)F)cc1,4.26
14,CN1CCN(C(=O)c2ccc(-n3nc(C(F)(F)F)c4c3CCCC4)cc2)CC1,-1.27
15,Oc1ncnc2[nH]c(N3CCOCC3)nc12,-6.08
16,O=C(O)CNC(=O)/C(=C/c1ccc(Cl)cc1)NC(=O)c1ccco1,9.87
17,O=C(Cn1ncc2c3ccccc3n(Cc3ccc(F)cc3)c2c1=O)N1CCCCCC1,1.8
18,Cc1ccc(NC(=O)/C=C/C(N)=O)cc1,-2.32
19,c1cnc2c(c1)NCCS2,6.13
20,CCOc1ccc(CCNC(=O)c2ccc3c(c2)ncn3C2CCCC2)cc1OCC,2.05
21,COc1ccc(S(=O)(=O)N2CC=C(C(=O)NC3CCCC3)CC2)cc1,3.34
22,O=c1oc2c(-c3ccccc3Cl)cc(O)cc2s1,-4.8
23,O=C(CCNS(=O)(=O)c1ccc2nc(O)ccc2c1)NC1CCCC1,1.93
24,COc1nc(C)nc(NC(=O)NS(=O)(=O)Nc2cc([N+](=O)[O-])ccc2C)n1,-8.49
25,Fc1ccc(N2CCN(C3C4CC5CC(C4)CC3C5)CC2)cc1 (centres unmarked),1.29
26,Cn1c2c(c(=O)n(C)c1=O)C(c1ccc(F)cc1)C(C#N)=C(N)O2 (centres unmarked),-3.65

row,Structure (SMILES),% Inhibition @ 10 uM [%]
1,CCOc1ccccc1/C=C(\C#N)c1nc(-c2ccc(OC)cc2)cs1,2.56
2,Cc1ccc(/C=C2\N=C(c3cc(Cl)ccc3Cl)OC2=O)o1,-0.48
3,CCOc1ccc(-c2csc(Nc3ccc(F)cc3)n2)cc1[N+](=O)[O-],4.12
4,CCn1cc(CCCC(=O)NC2CCCC2)c2ccccc21,-6.99
5,O=[N+]([O-])c1cccc(CN2CCN(c3ccccc3)CC2)c1,-0.197
6,CCOC(=O)C1=C(C)N=c2s/c(=C\c3ccc(O)cc3)c(=O)n2C1c1ccc(Cl)cc1 (centres unmarked),-3.44
7,CCOC(=O)C1=C(C)N=c2s/c(=C/C=C\c3ccccc3)c(=O)n2C1c1cccs1 (centres unmarked),1.25
8,OCc1cccc[n+]1Cc1ccccc1,2.7
9,CCCC(=O)Nc1c2c(nn1-c1ccc(F)cc1)CS(=O)(=O)C2,-1.91
10,CCc1ccc(-n2nnc(-c3nsc(NC(=O)c4ccccc4C)n3)c2C)cc1,-0.656
11,CC(C)NC(=O)Cc1ccc(-n2c(-c3ccccc3)nc3cccnc32)cc1,3.64
12,Cc1noc(C)c1S(=O)(=O)N1CCN(C)CC1,1.72
13,CCCCNC(=O)NC(C)C12CC3CC(CC(C3)C1)C2 (centres unmarked),-2.55
14,Cc1oc(-c2ccccc2F)nc1CSCC(=O)NCc1ccccc1Cl,0.689
15,CCC(=O)N1CC(=O)Nc2ccc(Br)cc2C1c1ccccc1 (centres unmarked),-3.48
16,CCc1c2c(n(C)c1-c1ccccc1)C(c1ccccc1)Oc1ccccc1-2 (centres unmarked),-3.63
17,CCN(Cc1ccccc1)S(=O)(=O)c1c(C)cc(C)cc1C,-3.27
18,Cc1noc(C)c1S(=O)(=O)N1CCCC(C(=O)NC2CCCCCC2)C1 (centres unmarked),-4.69
19,CCc1ccc(-n2nnc(-c3nc(-c4ccncc4)no3)c2N)cc1,3.73
20,COc1ccc(NC(=O)NC23CC4CC(CC(C4)C2)C3)c(C)c1,2.92
21,Cc1cc(C(F)F)n2ncc(C(=O)NCCc3ccc(Cl)cc3)c2n1,-2.75
22,CCn1c(SCCc2ccccc2)nc2c1c(=O)[nH]c(=O)n2C,0.851
23,CC1CCc2c(sc(NC(=O)CSc3ncccn3)c2C#N)C1 (centres unmarked),-0.25
24,CC(C)C(=O)N1CCN(c2ccc(NC(=O)c3cccnc3Cl)cc2)CC1,-4.12
25,Cc1ccc(NC(=O)c2sc3nc4c(cc3c2N)CCC4)cc1,1.15
26,O=C(Nc1ccn(-c2ccccc2)n1)C12CC3CC(CC(C3)C1)C2,-1.05

row,Structure (SMILES),% Inhibition @ 10 uM [%]
1,COC(=O)c1ccc(-c2ccccc2)s1,-5.81
2,CN1C(=O)c2ccccc2C(C(=O)NCCN2CCOCC2)C1c1cccs1 (centres unmarked),-3.27
3,CC1CCN(CCCNC(=O)c2nn(C)c3c2CSc2ccccc2-3)CC1,1.68
4,CCOc1ccc(Nc2nc(-c3sc(C)nc3C)cs2)cc1,-2.48
5,Cc1nn(C)cc1CN(C)C(=O)CC12CC3CC(CC(C3)C1)C2,3.79
6,COc1cccc(-c2nnc3sc(NC(=O)c4ccc(F)cc4)nn23)c1,-1.72
7,CC(O)CSc1nc2c(c(=O)[nH]c(=O)n2C)n1Cc1ccccc1 (centres unmarked),4.3
8,CC(C)c1nc2sc3c(NCCO)ncnc3c2c2c1COC(C)(C)C2,0.415
9,O=C(c1nn2c(C(F)(F)F)cc(-c3ccccc3)nc2c1Br)N1CCCCC1,-11
10,COc1ccccc1/N=C1/C=C(O)CC(C)(C)C1,-0.771
11,CC(C)n1c(=O)c2oc3ccccc3c2n(CC(=O)NCc2ccccc2)c1=O,1.41
12,COCCCN(Cc1ccco1)C(=O)c1cc2c(O)nc3ccc(C)cc3c2s1,1.72
13,COc1ccc(OC)c(NC(=O)COc2ccc(C)cc2Br)c1,-1.38
14,Cc1ccc(S(=O)(=O)Nc2cc(NS(=O)(=O)c3ccc(C)cc3)c3ccccc3c2O)cc1,6.94
15,O=S(=O)(Nc1ccc(Cl)c(Cl)c1)c1cc(Cl)ccc1Cl,3.53
16,O=C(Nc1ccc(F)cc1)Nc1cccc(Br)c1,1.44
17,CCOCCCNC(=O)C1CCN(S(=O)(=O)N2CC(C)CC(C)C2)CC1 (centres unmarked),-2.99
18,Cc1cc(C)nc(NS(=O)(=O)c2ccc(NC(=O)c3ccc(Br)o3)cc2)n1,4.3
19,CCCN(CCC)c1ncnc2c1cnn2-c1ccc(C)cc1C,7.48
20,CCCCOc1ccc(C(=O)NCc2ccc3c(c2)OCO3)cc1,39.3
21,COc1cccc(-c2nc(CS(=O)(=O)CC(=O)N3CC(C)CC(C)C3)c(C)o2)c1 (centres unmarked),3.19
22,O=C(COc1ccc(Br)cc1)N1CCN(CCCc2ccccc2)CC1,5.05
23,C=C(C)CC(Nc1ccccc1C)c1ccco1 (centres unmarked),-2.88
